# The supplement of paper PMC10369915
# Some of the results follow. Rule as the data show it: active = 3.2 or more and inactive = the rest. Most of these values are background signal.
# Tests used:
# Experiment in all cases: enrichment score (SH2-bound / input frequency) (ratio); bacterial display of known human phosphotyrosine sites (pTyr-Var adds point mutants) read by sequencing; higher = stronger binding; tyrosines were phosphorylated by kinases first
# Conditions in all cases: peptide library: Human pTyr
# SHP2 C-SH2 domain E139D = target: SHP2 C-SH2 domain E139D
# [1] = target: SHP2 C-SH2 domain wild-type
# SHP2 N-SH2 domain L43F = target: SHP2 N-SH2 domain L43F
# SHP2 N-SH2 domain T42A = target: SHP2 N-SH2 domain T42A
# SHP2 N-SH2 domain T52S = target: SHP2 N-SH2 domain T52S
# [2] = target: SHP2 N-SH2 domain wild-type
# 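Also: displayed peptides selected on beads carrying the immobilized SH2 domain, with library peptides lacking any tyrosine serving as negative controls.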
Binder,enrichment score (SHP2 C-SH2 domain E139D),enrichment score [1],enrichment score (SHP2 N-SH2 domain L43F),enrichment score (SHP2 N-SH2 domain T42A),enrichment score (SHP2 N-SH2 domain T52S),enrichment score [2]
EAIDKAGYTEKIVIG [ENOG_HUMAN_236],inactive: 0.776,inactive: 0.634,inactive: 0.602,inactive: 0.675,inactive: 0.766,inactive: 0.71
KDRERPMYGRDSAAQ [EMD_HUMAN_155_YA],inactive: 1.76,inactive: 1.08,inactive: 1.14,inactive: 1.3,inactive: 1.3,inactive: 1.31
KGYNDDYYEESYFTT [EMD_HUMAN_95],inactive: 1.11,inactive: 0.992,inactive: 1.27,inactive: 1.02,inactive: 0.866,inactive: 1.15
WSLPNPEYATLRAAD [ELMO2_HUMAN_48_YA],active: 3.57,active: 7.29,inactive: 0.728,inactive: 0.662,inactive: 0.758,inactive: 0.589
DDAAEESYFTTRTAG [EMD_HUMAN_99_YA],inactive: 0.898,inactive: 0.706,inactive: 0.995,inactive: 0.83,inactive: 0.998,inactive: 0.858
ATQDSGFYGGGGGGG [EIF3E_HUMAN_445],inactive: 0.802,inactive: 0.538,inactive: 0.584,inactive: 0.531,inactive: 0.491,inactive: 0.623
YEKKIFEYETQRRRL [EMD_HUMAN_41],inactive: 0.951,inactive: 0.815,inactive: 1.43,inactive: 0.856,inactive: 0.975,inactive: 1.26
KALANMNYVHRDLAA [EPHA2_HUMAN_735_YA],inactive: 0.635,inactive: 0.486,inactive: 0.419,inactive: 0.53,inactive: 0.53,inactive: 0.398
KLLLLRGYAFNHSAD [ACTR2_HUMAN_202],inactive: 1.19,inactive: 1.08,inactive: 1.16,inactive: 0.996,inactive: 1.2,inactive: 1.28
KKEDALLYQSKGYND [EMD_HUMAN_85],inactive: 0.853,inactive: 0.804,inactive: 0.741,inactive: 0.803,inactive: 0.964,inactive: 1.01
DSDEPLVYFADDVTT [ACSL1_HUMAN_84_YA],inactive: 1.3,inactive: 0.983,inactive: 1.13,inactive: 0.985,inactive: 1.14,inactive: 1.22
WSLPNPEYYTLRYAD [ELMO2_HUMAN_48],inactive: 1.19,inactive: 1.15,inactive: 1.18,inactive: 1.16,inactive: 1.21,inactive: 1.15
DSDEPLVYFYDDVTT [ACSL1_HUMAN_84],inactive: 1.02,inactive: 0.944,inactive: 1.03,inactive: 0.968,inactive: 1.2,inactive: 1.05
TAIQAAGYPDKVVIG [ENOB_HUMAN_236],inactive: 0.738,inactive: 0.579,inactive: 0.604,inactive: 0.673,inactive: 0.744,inactive: 0.917
ISLDNPDYQQDFFPK [EGFR_HUMAN_1172],inactive: 0.696,inactive: 0.571,inactive: 0.628,inactive: 0.829,inactive: 0.615,inactive: 0.637
MHSQGSDYLDIGNNP [ACVL1_HUMAN_361],inactive: 0.502,inactive: 0.455,inactive: 0.586,inactive: 0.526,inactive: 0.677,inactive: 0.584
APSRDPHYQDPHSTA [EGFR_HUMAN_1125],inactive: 0.811,inactive: 0.61,inactive: 0.628,inactive: 0.523,inactive: 0.719,inactive: 0.711
SAFTTRTYGEPESAG [EMD_HUMAN_105_YA],inactive: 0.55,inactive: 0.489,inactive: 0.494,inactive: 0.553,inactive: 0.657,inactive: 0.586

Binder,enrichment score (SHP2 C-SH2 domain E139D),enrichment score [1],enrichment score (SHP2 N-SH2 domain L43F),enrichment score (SHP2 N-SH2 domain T42A),enrichment score (SHP2 N-SH2 domain T52S),enrichment score [2]
KYLANMNYVHRDLAA [EPHA2_HUMAN_735],inactive: 0.985,inactive: 0.922,inactive: 1.37,inactive: 1.09,inactive: 1.01,inactive: 1.11
TYVDPHTYEDPNQAV [EPHA2_HUMAN_594],inactive: 0.682,inactive: 0.83,inactive: 0.852,inactive: 0.697,inactive: 0.805,inactive: 0.817
SPTDSNFYRALMDEE [EGFR_HUMAN_998],inactive: 0.979,inactive: 0.991,inactive: 0.877,inactive: 0.947,inactive: 1.26,inactive: 1.26
KGANDDAYEESAFTT [EMD_HUMAN_95_YA],inactive: 0.831,inactive: 0.56,inactive: 0.935,inactive: 0.648,inactive: 0.787,inactive: 0.692
KLPGLRTYVDPHTYE [EPHA3_HUMAN_596],inactive: 0.627,inactive: 0.614,inactive: 0.553,inactive: 0.484,inactive: 0.727,inactive: 0.617
KKEDALLYQSKGAND [EMD_HUMAN_85_YA],inactive: 0.934,inactive: 0.811,inactive: 0.805,inactive: 0.872,inactive: 0.983,inactive: 0.976
STAENAEYLRVAPQS [EGFR_HUMAN_1197],inactive: 0.522,inactive: 0.551,inactive: 0.496,inactive: 0.617,inactive: 0.632,inactive: 0.61
GSVQNPVYHNQPLNP [EGFR_HUMAN_1110],inactive: 0.66,inactive: 0.596,inactive: 0.753,inactive: 0.584,inactive: 0.711,inactive: 0.542
VAGHSLGYGFVNAVT [ELAVL1_HUMAN_63_YA],inactive: 0.95,inactive: 0.804,inactive: 0.897,inactive: 0.882,inactive: 0.809,inactive: 0.929
EDDPEATYTTSGGKI [EPHA2_HUMAN_772],inactive: 0.842,inactive: 0.604,inactive: 0.756,inactive: 0.836,inactive: 1.01,inactive: 0.842
SYFTTRTYGEPESAG [EMD_HUMAN_105],inactive: 0.786,inactive: 0.818,inactive: 0.707,inactive: 0.82,inactive: 0.859,inactive: 0.692
KLPGLRTYVDPHTAE [EPHA3_HUMAN_596_YA],inactive: 1.18,inactive: 0.948,inactive: 1.14,inactive: 0.995,inactive: 1.03,inactive: 1.32
TAVGNPEYLNTVQPT [EGFR_HUMAN_1138],inactive: 0.426,inactive: 0.591,inactive: 0.683,inactive: 0.6,inactive: 0.605,inactive: 0.541
VLNSHDLYQKVAQEI [ELMO1_HUMAN_216],inactive: 0.705,inactive: 0.723,inactive: 0.721,inactive: 0.722,inactive: 0.794,inactive: 1.03
GHTSNNIYEAVKYSE [ELP3_HUMAN_202],inactive: 0.751,inactive: 0.787,inactive: 0.783,inactive: 0.702,inactive: 0.921,inactive: 0.811
SKGYNDDYYEESYFT [EMD_HUMAN_94],inactive: 0.959,inactive: 1.26,inactive: 0.975,inactive: 0.967,inactive: 1,inactive: 1.13
AGEFGEVYKGMLKTS [EPHA2_HUMAN_628],inactive: 0.744,inactive: 0.774,inactive: 0.561,inactive: 0.531,inactive: 0.513,inactive: 0.769
VALLSQLYHSPARRF [ELAVL1_HUMAN_200],inactive: 0.637,inactive: 0.601,inactive: 0.705,inactive: 0.772,inactive: 0.633,inactive: 0.871
